Consider 22 molecules from PubChem BioAssay (NCI).

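Exposure lasted 48 hours, with cells grown in 96-well plates and compounds tested at five concentrations. At the GI50, growth is halved. TGI is the concentration that stops growth completely.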

The test system of this experiment is NCI-H322M lung. The experiment in a line: inhibition of tumour cell growth, NCI panel, 48 h.
`CCOC(=O)Cc1csc2[n+]1C(=O)/C(=C/c1cccc(OC)c1O)S2` registered a TGI of over 100 µM.
Same read-out and setting: the figure for `CCOC(=O)C(=O)Nc1ccc(Cl)cc1C` is over 100 µM.
Turning to `N#CC(C#N)N=Nc1ccc(Br)cc1`, the GI50 is 41.6 µM and the TGI is over 100 µM.
As to `CC=CCOc1cc(NC(=S)OC(C)C)ccc1Cl` (mixture of isomers), the TGI stood at 46.2 µM.
Still for that read-out and setting: as for `C#CCN(N=O)C(=O)NC(CCCNC(=O)OCc1ccccc1)C(=O)OCc1ccccc1` (configuration not stated), the figure is over 100 µM.
On to `Cc1nc(C(N)=S)sc1C(/C=C/c1ccc(Cl)c(Cl)c1)=N/NC(C)(C)C`, for which the TGI is over 100 µM.
Turning to `Clc1ccc(C2=Nn3c(nnc3-c3cc(Cl)cc(Cl)c3Cl)SC2)cc1`, the GI50 was 82.8 µM and the TGI is over 100 µM.
`CC1(C)CC23CC(C)(C)c4cccc(c42)OCc2ccc4ccc5ccc(nc5c4n2)COc2cccc1c23` registered a TGI of over 50 µM.
In turn, `O=C1NC(N2CCCCC2)=N/C1=C\c1cccs1` yielded a TGI of over 100 µM.
`CN(C)/N=C(/c1nc2ccc([N+](=O)[O-])cc2[nH]c1=O)C(O)c1ccco1` (configuration not stated): the TGI was over 100 µM.
Still for that read-out and setting: as for `CCN1C[C@]2(C)CC[C@H](OC)C34C1C([C@H](OC(C)=O)[C@@H]32)[C@@]1(OC)C[C@H](OC)[C@H]2C[C@@H]4[C@@H]1[C@H]2O`, the figure is over 100 µM.
Regarding `COc1cc2c3c(n(CCCNCCCNCCCNCCCN)c(=O)c2cc1OC)-c1cc2c(cc1C3=O)OCO2`, the GI50 was 2.73 µM and the TGI came to 6.79 µM.
For the molecule `CC(=O)Oc1cc2c(c3ncccc13)OC(C)(C)C2`, the TGI was found to be 26.6 µM.
Same read-out and setting: as for `COc1cc(C=C2C(C)=NN(c3cccc(Cl)c3)C23C(Cl)C(=O)N3c2nc3ccccc3s2)ccc1O` (configuration not stated), the figure is over 100 µM; as for `CC(C)C1CC2C(=O)N(c3ccccc3)C(=O)C2c2[nH]c3ccccc3c21` (configuration not stated), over 100 µM.
On to `C[C@@H]1Cc2c([nH]c3ccccc23)[C@@H](c2c(F)cc(NC3CN(CCCF)C3)cc2F)N1CC(F)(F)CO`, for which the GI50 was 10.3 µM and the TGI stood at 22.4 µM.
Regarding `COc1ccc(N/N=C(\CCN(C)C)c2ccccc2)cc1`, the TGI worked out at 34.9 µM.
As to `S=C(Nc1ccc(Cl)cc1)Nc1ccc(-c2nc3ccccc3o2)cc1`, the GI50 was 15.8 µM and the TGI stood at 75.7 µM.
Consider `CCCCOC(=O)NC(Nc1cccc(C(F)(F)F)c1)(C(F)(F)F)C(F)(F)F`, for which the TGI is over 100 µM.
Same read-out and setting: the figure for `Cc1ccc2c(sc(-c3ccc4c(c3)sc(-c3ccc5c(c3)sc(-c3ccc(N(C)C)cc3)[n+]5C)[n+]4C)[n+]2C)c1S(=O)(=O)O` (tested in a mixture with another compound) is over 100 µM; for `CCOC(=O)c1nc2ccccc2nc1Nc1ccc(OC)c(OC)c1` it is over 100 µM; for `Cc1ccc(C2NC(=O)c3ccccc3N2)s1` (configuration not stated) it is over 100 µM.
